The supplement of paper PMC8728848
The other results are listed elsewhere or left out.

Legend:
Assay in all cases: glycan array binding signal (z-score within array); higher = stronger binding
Conditions in all cases: glycan notation: IUPAC condensed, linker removed
[1] = molecular target: Gal(b1-4)GlcNAc(b1-2)Man(a1-3)[Gal(b1-4)GlcNAc(b1-2)Man(a1-6)]Man(b1-4)GlcNAc(b1-4)[Fuc(a1-6)]GlcNAc
Outline: (§1)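 Glycan array binding is given as a within-array Z-score, which can be read as non-binding when negative. The arrays, 3228 of them, came from the Consortium for Functional Glycomics database and were retained only where the protein sequence was available. Z-scores were averaged across arrays of the same protein sequence at different concentrations or buffers and across linkers.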

[2] = molecular target: Gal(b1-4)GlcNAc(b1-2)Man(a1-3)[Gal(b1-4)GlcNAc(b1-2)Man(a1-6)][Gal(b1-4)GlcNAc(b1-4)]Man(b1-4)GlcNAc(b1-4)[Fuc(a1-6)]GlcNAc
Outline: as §1

[3] = molecular target: Gal(b1-4)GlcNAc(b1-2)Man(a1-3)[Gal(b1-4)GlcNAc(b1-2)Man(a1-6)][GlcNAc(b1-4)]Man(b1-4)GlcNAc(b1-4)[Fuc(a1-6)]GlcNAc
Outline: as §1

[4] = molecular target: Gal(b1-4)GlcNAc(b1-2)Man(a1-3)[GlcNAc(b1-2)Man(a1-6)]Man(b1-4)GlcNAc(b1-4)GlcNAc
Outline: as §1

[5] = molecular target: Gal(b1-4)GlcNAc(b1-2)Man(a1-3)[GlcNAc(b1-4)][Gal(b1-4)GlcNAc(b1-2)Man(a1-6)]Man(b1-4)GlcNAc(b1-4)GlcNAc
Outline: as §1

[6] = molecular target: Gal(b1-4)GlcNAc(b1-2)Man(a1-3)[Man(a1-6)]Man(b1-4)GlcNAc(b1-4)GlcNAc
Outline: as §1

[7] = molecular target: Gal(b1-4)GlcNAc(b1-2)Man(a1-6)Man(b1-4)GlcNAc(b1-4)GlcNAc
Outline: as §1

[8] = molecular target: Gal(b1-4)GlcNAc(b1-2)Man(a1-6)[GlcNAc(b1-2)Man(a1-3)]Man(b1-4)GlcNAc(b1-4)GlcNAc
Outline: as §1

[9] = molecular target: Gal(b1-4)GlcNAc(b1-2)Man(a1-6)[Man(a1-3)]Man(b1-4)GlcNAc(b1-4)GlcNAc
Outline: as §1

[10] = molecular target: Gal(b1-4)GlcNAc(b1-2)[Gal(b1-4)GlcNAc(b1-4)]Man(a1-3)[Gal(b1-4)GlcNAc(b1-2)Man(a1-6)]Man(b1-4)GlcNAc(b1-4)GlcNAc
Outline: as §1

[11] = molecular target: Gal(b1-4)GlcNAc(b1-2)[Gal(b1-4)GlcNAc(b1-4)]Man(a1-3)[Gal(b1-4)GlcNAc(b1-2)[Gal(b1-4)GlcNAc(b1-6)]Man(a1-6)]Man(b1-4)GlcNAc(b1-4)GlcNAc
Outline: as §1

[12] = molecular target: Gal(b1-4)GlcNAc(b1-2)[Gal(b1-4)GlcNAc(b1-4)]Man(a1-3)[GlcNAc(b1-4)][Gal(b1-4)GlcNAc(b1-2)Man(a1-6)]Man(b1-4)GlcNAc(b1-4)GlcNAc
Outline: as §1

[13] = molecular target: Gal(b1-4)GlcNAc(b1-2)[Gal(b1-4)GlcNAc(b1-4)]Man(a1-3)[GlcNAc(b1-4)][Gal(b1-4)GlcNAc(b1-2)[Gal(b1-4)GlcNAc(b1-6)]Man(a1-6)]Man(b1-4)GlcNAc(b1-4)GlcNAc
Outline: as §1

[14] = molecular target: Gal(b1-4)GlcNAc(b1-2)[Gal(b1-4)GlcNAc(b1-6)]Man(a1-6)[Gal(b1-4)GlcNAc(b1-2)Man(a1-3)]Man(b1-4)GlcNAc(b1-4)GlcNAc
Outline: as §1

[15] = molecular target: Gal(b1-4)GlcNAc(b1-2)[Gal(b1-4)GlcNAc(b1-6)]Man(a1-6)[Gal(b1-4)GlcNAc(b1-2)Man(a1-3)]Man(b1-4)GlcNAc(b1-4)[Fuc(a1-6)]GlcNAc
Outline: as §1

[16] = molecular target: Gal(b1-4)GlcNAc(b1-2)[Gal(b1-4)GlcNAc(b1-6)]Man(a1-6)[GlcNAc(b1-4)][Gal(b1-4)GlcNAc(b1-2)Man(a1-3)]Man(b1-4)GlcNAc(b1-4)GlcNAc
Outline: as §1

[17] = molecular target: Gal(b1-4)GlcNAc(b1-2)[Gal(b1-4)GlcNAc(b1-6)]Man(a1-6)[GlcNAc(b1-4)][Gal(b1-4)GlcNAc(b1-2)[Gal(b1-4)GlcNAc(b1-4)]Man(a1-3)]Man(b1-4)GlcNAc(b1-4)[Fuc(a1-6)]GlcNAc
Outline: as §1

[18] = molecular target: Gal(b1-4)GlcNAc(b1-3)Gal(b1-3)GalNAc
Outline: as §1

[19] = molecular target: Gal(b1-4)GlcNAc(b1-3)Gal(b1-3)GlcNAc
Outline: as §1

[20] = molecular target: Gal(b1-4)GlcNAc(b1-3)Gal(b1-4)Glc
Outline: as §1

[21] = molecular target: Gal(b1-4)GlcNAc(b1-3)Gal(b1-4)GlcNAc
Outline: as §1

[22] = molecular target: Gal(b1-4)GlcNAc(b1-3)Gal(b1-4)GlcNAc(b1-2)Man(a1-3)[Gal(b1-4)GlcNAc(b1-3)Gal(b1-4)GlcNAc(b1-2)Man(a1-6)]Man(b1-4)GlcNAc(b1-4)GlcNAc
Outline: as §1

[23] = molecular target: Gal(b1-4)GlcNAc(b1-3)Gal(b1-4)GlcNAc(b1-2)Man(a1-3)[Gal(b1-4)GlcNAc(b1-3)Gal(b1-4)GlcNAc(b1-2)Man(a1-6)]Man(b1-4)GlcNAc(b1-4)[Fuc(a1-6)]GlcNAc
Outline: as §1

B1: rEtpA (Escherichia coli) (protein)
chain: MNRIYKLKFDKRRNELVVVSEITTGVGNAKATGSVEGEKSPRRGVRAMALSLLSGMMIMAHPAMSANLPTGGQIVAGSGSIQTPSGNQMNIHQNSQNMVANWNSFDIGKGNTVQFDQPSSSAVALNRVVGGGESQIMGNLKANGQVFLVNPNGVLFGEGASVSTSGFVASTRDIKNDDFMNRRYTFSGGQKAGAAIVNQGELTTNAGGYIVLAADRVSNSGTIRTPGGKTVLAASERITLQLDNGGLMSVQVTGDVVNALVENRGLVSARDGQVYLTALGRGMLMNTVLNVSGVVEASGMHRQDGNIVLDGGDSGVVHLSGTLQADNASGQGGKVVVQGKNILLDKGSNITATGGQGGGEVYVGGGWQGKDSNIRNADKVVMQGGARIDVSATQQGNGGTAVLWSDSYTNFHGQISAKGGETGGNGGRVETSSHGNLQAFGTVSASAKKGKAGNWLLDSADITIVNGSNVSKTETTQSPPHTQFAPTAAGSAVSNTSINNRLNNGTSVTILTHRTRTGTAQGGNITVNAAINKSNGSDVNLTLQAGGNITVNNSITSTEGKLNVNLSGARTSNGSITISNNANITTNGGDITVGTTNTSNRVNISINNTTLNASNGNIQLTGTGTDSGILFAGNNRLTASNIALTGNSTSGNAINLTGTATLNATNNITLTGSSTSGNAINLKGNNTLTASNITLTGESTSGNAINLTDTTGTTTLNATNNITMQGTRVQIKHSNITAGNFALNATVAGSEISNTTLTATNNINLAAKTNSASSGVYLKDARITSTNGSITANGTATANGKATHLDGNVTLNASNGRIKLTGNGHGSASGILFAGNNRLTASNIALTGNSTSGNAINLTGTATLNATNDITLTGSSTSGNAINLTGTATLNATNNITLTGSSTSGNAINLKGNNTLTASNITLTGESTSGNAINLTDTTGTTTLNATNNITMQGTRVQIKHSNITAGNFALNATVAGSEISNTTLTATNNINLAAKTNSASSGVYLKDARITSTNGSITANGTATANGKATHLDGNVTLNASNGRIKLTGNGHGSASGILFAGNNRLTASNIALTGNSTSGNAINLTGTATLNATNDITLTGSSTSGNAINLTGTATLNATNNITLTGSSTSGNAINLKGNNTLTASNITLTGESTSGNAINLTDTTGTTTLNATNNITMQGTRVQIKHSNITAGNFALNATVAGSEISNTTLTATNNINLAAKTNSASSGVYLKDARITSTNGSITANGTATANGKATHLDGNVTLNASNGRIKLTGNGHGSASGILFAGNNRLTASNIALTGNSTSGNAINLTGTATLNATNDITLTGSSTSGNAINLTGTATLNATNNITLTGSSTSGNAINLKGNNTLTASNITLTGESTSGNAINLTDTTGTTTLNATNNITMQGTRVQIKHSNITAGNFALNATVAGSEISNTTLTATNNINLAAKTNSASSGVYLKDARITSTNGSITTNGTATANGKATHLDGNVTLNASNGRIKLTGNGHGSASGILFAGNNRLTASNIALTGNSTSGNAINLTGTATLNATNDITLTGSSTSGNAINLTGTATLNATNNITLTGSSTSGNAINLKGNNTLTASNITLTGESTSGNAINLTDTTGTTTLNATNNITMQGTRVQIKHSNITAGNFALNATVAGSEISNTTLTATNNINLAAKTNSASSGVYLKDARITSTNGSITANGTAPANDNATYLDGNVTLNASNGSIKLTGNGNGSTSGILFAGNNTLTASNITLTGNSEVYWQKLGPEQKLISEEDLNSAVDHHHHHH
**Q.** For B1, which “glycan array binding signal (z-score)” value [1] is on record?
**A.** The value was -0.26.

**Q.** What about the “glycan array binding signal (z-score)” value [2] of the same binder?
**A.** The value was -0.392.

**Q.** And the “glycan array binding signal (z-score)” value [3]?
**A.** Its value is -0.441.

**Q.** And the “glycan array binding signal (z-score)” value [4]?
**A.** The value was -0.408.

**Q.** And the “glycan array binding signal (z-score)” value [5]?
**A.** Its value is -0.274.

**Q.** What about the “glycan array binding signal (z-score)” value [6] of the same binder?
**A.** The value was -0.452.

**Q.** What about the “glycan array binding signal (z-score)” value [7] of the same binder?
**A.** Its value is -0.376.

**Q.** What about the “glycan array binding signal (z-score)” value [8] of the same binder?
**A.** Its value is -0.16.

**Q.** What about the “glycan array binding signal (z-score)” value [9] of the same binder?
**A.** Its value is 0.021.

**Q.** And the “glycan array binding signal (z-score)” value [10]?
**A.** The value was -0.327.

**Q.** And the “glycan array binding signal (z-score)” value [11]?
**A.** Its value is -0.274.

**Q.** And the “glycan array binding signal (z-score)” value [12]?
**A.** The value was -0.163.

**Q.** What about the “glycan array binding signal (z-score)” value [13] of the same binder?
**A.** Its value is -0.271.

**Q.** And the “glycan array binding signal (z-score)” value [14]?
**A.** The value was 0.68.

**Q.** What about the “glycan array binding signal (z-score)” value [15] of the same binder?
**A.** The value was -0.222.

**Q.** And the “glycan array binding signal (z-score)” value [16]?
**A.** The value was -0.309.

**Q.** What about the “glycan array binding signal (z-score)” value [17] of the same binder?
**A.** The value was -0.376.

**Q.** And the “glycan array binding signal (z-score)” value [18]?
**A.** Its value is -0.392.

**Q.** What about the “glycan array binding signal (z-score)” value [19] of the same binder?
**A.** Its value is -0.38.

**Q.** What about the “glycan array binding signal (z-score)” value [20] of the same binder?
**A.** The value was -0.207.

**Q.** And the “glycan array binding signal (z-score)” value [21]?
**A.** The value was -0.434.

**Q.** And the “glycan array binding signal (z-score)” value [22]?
**A.** The value was -0.31.

**Q.** What about the “glycan array binding signal (z-score)” value [23] of the same binder?
**A.** Its value is -0.17.
